Measurements reported in publication PMC4336329 (PLoS ONE, 2015).
The whole screen tested about 310,000 compounds, of which about 14,000 (4.5%) showed an effect of 50% or more. The effect is printed as a negative number. Some of the results follow.

target: human ether-à-go-go-related gene (hERG) potassium channel (human, UniProt Q12809); experiment: primary screen, population patch clamp on CHO cells stably expressing hERG
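Note: peak tail current of the secondary pulse compared with the same well before compound.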

Chain of human ether-à-go-go-related gene (hERG) potassium channel (Q12809 whole entry, looked up): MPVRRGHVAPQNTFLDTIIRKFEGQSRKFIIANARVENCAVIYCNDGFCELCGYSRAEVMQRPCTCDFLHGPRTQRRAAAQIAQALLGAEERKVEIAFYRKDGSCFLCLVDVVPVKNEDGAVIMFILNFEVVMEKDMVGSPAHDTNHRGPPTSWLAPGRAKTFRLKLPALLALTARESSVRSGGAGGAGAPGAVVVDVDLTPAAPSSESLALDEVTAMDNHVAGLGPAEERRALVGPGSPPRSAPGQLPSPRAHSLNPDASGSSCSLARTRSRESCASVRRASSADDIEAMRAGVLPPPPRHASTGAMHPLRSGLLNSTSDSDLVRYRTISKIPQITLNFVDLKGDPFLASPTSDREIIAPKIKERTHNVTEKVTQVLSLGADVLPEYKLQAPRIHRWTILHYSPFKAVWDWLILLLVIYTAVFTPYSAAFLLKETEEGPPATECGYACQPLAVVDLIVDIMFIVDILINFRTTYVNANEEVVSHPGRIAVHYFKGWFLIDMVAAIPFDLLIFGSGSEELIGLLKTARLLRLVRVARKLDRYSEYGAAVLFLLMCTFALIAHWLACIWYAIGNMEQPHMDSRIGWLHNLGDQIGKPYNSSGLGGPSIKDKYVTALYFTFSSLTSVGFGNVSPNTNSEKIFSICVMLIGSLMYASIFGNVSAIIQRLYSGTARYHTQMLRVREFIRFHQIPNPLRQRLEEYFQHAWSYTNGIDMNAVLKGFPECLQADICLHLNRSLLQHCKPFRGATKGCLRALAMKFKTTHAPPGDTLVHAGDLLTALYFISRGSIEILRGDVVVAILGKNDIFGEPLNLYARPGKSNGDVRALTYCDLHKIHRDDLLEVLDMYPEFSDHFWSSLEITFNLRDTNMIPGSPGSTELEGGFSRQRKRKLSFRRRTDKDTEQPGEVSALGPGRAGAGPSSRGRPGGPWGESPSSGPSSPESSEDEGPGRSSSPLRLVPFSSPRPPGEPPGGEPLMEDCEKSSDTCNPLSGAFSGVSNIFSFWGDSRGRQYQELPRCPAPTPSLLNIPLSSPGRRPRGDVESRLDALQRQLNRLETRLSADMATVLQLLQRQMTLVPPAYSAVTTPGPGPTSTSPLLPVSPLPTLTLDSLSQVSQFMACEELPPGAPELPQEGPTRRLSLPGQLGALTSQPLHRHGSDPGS

Row | Compound | hERG current change (%, negative = inhibition) at 10uM [%]
1 | Cc1cc(C)c2nc(N(CCCN(C)C)C(=O)C3=COCCO3)sc2c1.Cl | -65.9
2 | Cc1ccccc1/C=N/Nc1ncnc2nc[nH]c12 | 5.82
3 | CC1CCC2C(=O)N(c3cccc(OS(=O)(=O)c4ccccc4)c3)C(=O)C2C1 (centres unmarked) | -24.9
4 | O=C(CCN1C(=O)/C(=C/c2ccccc2Cl)SC1=S)NCCc1ccc(O)cc1 | 13.9
5 | Cc1ccc(C(=O)COC(=O)CNC(=O)c2ccc(Br)o2)cc1[N+](=O)[O-] | 4.86
6 | Cc1ccc(NC(=O)COC(=O)CCC(=O)c2cccs2)cc1C | 8.49
7 | O=C(Nc1ccccc1)/C(=C/c1ccc(F)cc1)NC(=O)c1ccco1 | -2.63
8 | Cc1ccccc1OCCC(=O)Nc1ccccc1C(=O)N1CCCCC1 | -10.8
9 | Nc1nc(N)nc(-c2ccc(Oc3ccccc3)cc2)n1 | 15.6
10 | Cn1c(Cc2ccccc2)nnc1SCC(=O)Nc1ccccc1N1CCOCC1 | -1.63
11 | Cc1ccc(S(=O)(=O)Nn2c(C)nnc2-n2nc(C)cc2C)cc1 | -3.39
12 | Cc1cc(C)c(C)c(S(=O)(=O)NC(C(=O)NCCc2ccco2)C(C)C)c1C (centres unmarked) | -5.41
13 | N#CC1(P(=O)(c2ccccc2)c2ccccc2)CCCC1 | -46.1
14 | N#CCc1nn2c(-c3ccccc3)ccnc2c1C#N | 4.28
15 | Cc1ccc(C)c(N(CC(=O)NCCc2ccccc2)C(=O)CCC(=O)Nc2ccccn2)c1 | -8.07
16 | N#CCSc1nnc(-c2ccc(S(=O)(=O)N3CCOCC3)cc2)n1CC1CCCO1 (centres unmarked) | 12.2
17 | COc1ccc(-n2cnnc2)cc1 | 5.2
18 | Cc1[nH]c2ccccc2c1CCC(N)=O | -13.2
19 | COc1ccc(Cl)cc1N(CC(=O)N(C)C)S(=O)(=O)c1ccc(C)c([N+](=O)[O-])c1 | -11
20 | COc1cccc(CN2CC(C(=O)NCCn3cccn3)CCC2=O)c1 (centres unmarked) | 27.9
21 | O=C(CNC(=O)c1ccccc1Cl)OCC(=O)N1CCc2ccccc21 | -10.5

Row | Compound | hERG current change (%, negative = inhibition) at 10uM [%]
22 | O=c1sc(/C=N/Nc2ccccc2)c(Cl)n1Cc1ccccc1 | 18.8
23 | CCOC(=O)N1CCN(CC(O)COCC2=CCC3CC2C3(C)C)CC1.O=C(O)C(=O)O (centres unmarked) | -27.4
24 | CCN(c1ccccc1)S(=O)(=O)c1cc(C(=O)Nc2cccc(Cl)c2)ccc1F | 19.5
25 | Cc1cc(C)c2c(NC(=S)NC(=O)c3ccccc3)n[nH]c2n1 | 18
26 | O=C(Cc1cccc2ccccc12)NNC(=O)Nc1ccc(Cl)cc1 | 7.23
27 | COc1ccc(C(CC(=O)O)NC(=O)c2cc3cc(Br)ccc3oc2=O)cc1OC (centres unmarked) | 28.8
28 | Cc1c(NC(=O)COC(=O)/C=C/c2ccccc2Br)c(=O)n(-c2ccccc2)n1C | -0.436
29 | CCCCOc1ccc(-c2ncc(C(=O)O)c(C)n2)cc1 | 17.3
30 | CCN(C(=O)CN1CCN(c2ccc(O)cc2)CC1)c1c(N)n(Cc2ccccc2)c(=O)[nH]c1=O | -37.3
31 | CCOC(=O)C1CCN(C(c2cccc(OC)c2)c2sc3nc(C)nn3c2O)CC1 (centres unmarked) | -22.1
32 | COc1cc(NC(=O)CSc2nnc3c(C)cc4cc(C)cc(C)c4n23)c(C(=O)O)cc1OC | 5.37
33 | CS(=O)(=O)N1c2ccccc2[C@]2([C@@]34C[C@H]5C(=O)N[C@@H](Cc6ccccc6)C(=O)N5[C@@H]3N(S(C)(=O)=O)c3ccccc34)C[C@H]3C(=O)N[C@@H](Cc4ccccc4)C(=O)N3[C@H]12 | 19.7
34 | O=C(CNC(=O)c1ccccc1)NCC(=O)OCc1ccccc1Cl | 21.1
35 | Cc1cc(C)n(-c2ncccc2[N+](=O)[O-])n1 | 12.4
36 | N#Cc1ccc(-c2ccc(OCC(O)Cn3nnc4ccccc43)cc2)cc1 (centres unmarked) | 0.164
37 | Oc1[nH]c2ccccc2c1C=NCC1CCCO1 (centres unmarked) | 13.2
38 | COCCN1C(=O)C(=O)/C(=C(/O)c2ccc(S(=O)(=O)N3CCOCC3)cc2)C1c1ccc(O)cc1 (centres unmarked) | 3.78
39 | O=C(CCc1ccccc1)N=C1SC2CS(=O)(=O)CC2N1Cc1ccc(F)cc1 (centres unmarked) | 21.7
40 | CCc1nc2ccccc2n1CC1CC1(Cl)Cl (centres unmarked) | 2.4
41 | O=C1N(c2ccc(Cl)cc2)C(c2ccc(Cl)cc2)N2CCCN12 (centres unmarked) | -16.7
42 | COc1ccc(/C=N/NC(=O)c2[nH]c3ccc(Br)cc3c2-c2ccccc2)cc1 | 7.87

Row | Compound | hERG current change (%, negative = inhibition) at 10uM [%]
43 | CC(C)(C)NC(=O)C(c1ccc(F)cc1)N(Cc1ccco1)C(=O)CCC(=O)Nc1ccccn1 (centres unmarked) | -26.7
44 | CN(CCO)c1cc(N2CCC3(CC2)OCCO3)c2nonc2c1[N+](=O)[O-] | 14.4
45 | COc1ccc(-c2noc(N3CCC(C(=O)NCCCN4CCCC(C)C4)CC3)n2)cc1 (centres unmarked) | -39.1
46 | CCC(C)N1C(=O)N(C)C2NC(=O)NC21 (centres unmarked) | -2.9
47 | COc1cccc(-c2cc(C(=O)N3CCN(c4ccccc4OC)CC3)no2)c1 | 1.15
48 | COCCOC(=O)C1=C(C)N=C2SCCC(=O)N2C1c1ccc(C(=O)OC)cc1 (centres unmarked) | 7.26
49 | COc1ccc(-c2cc(C(=O)N/N=C/c3cc(OC)c(OC)cc3OC)c3ccccc3n2)cc1 | 15
50 | O=[N+]([O-])c1cc(C(F)(F)F)ccc1Sc1ccccn1 | -28.5
51 | Cc1nnc(SCC(=O)N2c3ccccc3C(C)(c3ccc(Cl)cc3)CC2(C)C)s1 (centres unmarked) | 1.05
52 | COc1ccc(NC(=O)CN(C)S(=O)(=O)c2ccc3c(c2)CC(C)N3C(C)=O)c(OC)c1 (centres unmarked) | -4.01
53 | COC(=O)c1ccc(NC(=O)Nc2ccc(F)c(Cl)c2)cc1 | 15
54 | CC(C)(O)C#Cc1ccc(CN2CCN(Cc3ccccc3)C(CCO)C2)s1 (centres unmarked) | 4.64
55 | Cc1cc(NC(=O)CSc2nc3c(cc2C#N)CCC3)no1 | 26.7
56 | COc1ccc(Nc2ccccc2N)cc1.Cl | -1.13
57 | CCN1C(=O)/C(=C/c2ccc(OCc3ccc(C(=O)O)cc3)c(Cl)c2)NC1=S | 43.2
58 | COc1cc(C)nc(OCCNS(=O)(=O)c2cc(C)ccc2C)n1 | -7.54
59 | CC(C(=O)Nc1ccccc1Cl)N(c1ccccc1)S(C)(=O)=O (centres unmarked) | 5.49
60 | Nc1nonc1-n1nnc(C(=O)N/N=C/c2ccc(Cl)cc2Cl)c1CN1CCCCC1 | 10.7
61 | Cc1ccc(-c2nc(CCNC(=O)c3ccco3)cs2)cc1 | -16
62 | CN(C)c1ccc(CNC(=O)CN(C)S(=O)(=O)c2cccc3cccnc23)cc1 | -6.28
63 | CC(C)(C)c1ccc(C(=O)NCC(=O)OCC(=O)c2ccc3c(c2)-c2ccccc2C3)cc1 | -5.37

Row | Compound | hERG current change (%, negative = inhibition) at 10uM [%]
64 | COc1cc(OC)cc(C(=O)N[C@H](C(=O)OCC(=O)Nc2ccc(F)c(F)c2F)C(C)C)c1 | -34.8
65 | CC(=O)C[C@H](O)CC(=O)[C@H]1OC(=O)[C@H](C)C/C=C\Cc2ccccc21 | 9.09
66 | CC(C)(C)OC(=O)N1Cc2ccccc2C[C@H]1C(=O)NCC(=O)NC1CCCC1 | 7.24
67 | COc1ccc(Cn2nnnc2C(c2cc3ccc(OC)cc3[nH]c2=O)N2CCCCCC2)cc1 (centres unmarked) | -13.6
68 | Cc1cccc(CN(C(=S)Nc2c(C)cccc2C)c2cccnc2)c1 | -9.13
69 | Cc1oc(-c2ccc(Cl)cc2)nc1CS(=O)CC(=O)NCCCN(C)C1CCCCC1 (centres unmarked) | -30
70 | CC(C)(C)C(=O)NC1(C(F)(F)F)NC(=O)N(CCc2ccccc2)C1=O (centres unmarked) | 21.4
71 | CC(C)CCOc1ccc(C2(C)NC(=O)N(CN3CCOCC3)C2=O)cc1 (centres unmarked) | 11.4
72 | Cc1cc(C)cc(C(=O)N(Cc2ccco2)c2c(N)n(Cc3ccccc3)c(=O)[nH]c2=O)c1 | 17.1
73 | Cc1ccccc1-c1n[nH]c(=S)n1/N=C/C=C/c1ccco1 | 9.8
74 | COc1cc([N+](=O)[O-])ccc1NC(=O)CN1CCCC1 | 3.84
75 | COc1cc(OC)c(OC)cc1/C=N/NC(=O)c1cccc(S(=O)(=O)N2CCOCC2)c1 | -3.28
76 | O=C(NCCO)c1ccc2c3n(nc2c1)-c1ccccc1CO3 | 4.28
77 | CC(C)(C)NC(=O)CSc1nncn1NCc1c(Cl)cccc1Cl | -10.3
78 | Cc1cc(NC(=O)c2noc3c2CCCCC3)no1 | -2.16
79 | CCn1ncc(Br)c1C(=O)Nc1ccccc1OC | 5.38
80 | N#CCSc1nc2c(c(=O)n1Cc1ccccc1)C1(CCCC1)Cc1ccccc1-2 | -6.03
81 | O=C(CCN1C(=O)/C(=C/c2ccc3c(c2)OCO3)SC1=S)Nc1ccccc1 | 10
82 | N#Cc1c(N)sc(=S)c2c1CCCC2 | -1.64
83 | COc1cc(/C=N\NC(=O)CNC(=O)c2cccc([N+](=O)[O-])c2)ccc1O | -7.02
